From the supplement of paper PMC9446081
In all, about 39,000 compounds went through this assay and about 220 (0.56%) showed activity. The list shows a part of the results.

test system: Escherichia coli K-12 BW25113; experiment: relative growth (OD600 normalised to plate interquartile mean) (fraction); higher = less growth inhibition, active = 0.2 or less; conditions: 50 µM; LB; incubation time: overnight (16-24 h)
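Note: static incubation at 37 °C against the wild-type strain, values averaged over two biological replicates.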

Row | SMILES | relative growth
1 | C[C@H](CO)N1C[C@H](C)[C@@H](CN(C)C(=O)NC2CCCC2)Oc2cc(-c3cncnc3)ccc2S1(=O)=O | inactive: 0.96
2 | O=C(C[C@@H]1CC[C@@H]2[C@H](COC[C@@H](O)CN2S(=O)(=O)c2ccccc2F)O1)NCc1ccccc1F | inactive: 1.01
3 | COc1ccc(-c2nc3cc(C4=NNC(=O)CC4C)ccc3[nH]2)cc1 (centres undefined) | inactive: 1.05
4 | C[C@@H]1CN([C@@H](C)CO)C(=O)Cc2cc(NC(=O)NC3CCCCC3)ccc2O[C@H]1CN(C)Cc1ccc(C(=O)Nc2ccccc2N)cc1 | inactive: 0.98
5 | C[C@@H]1CCCCO[C@@H](CN(C)C(=O)c2ccccc2)[C@@H](C)CN([C@@H](C)CO)C(=O)c2cc(NS(=O)(=O)c3ccccc3)ccc2O1 | inactive: 1.01
6 | COc1ccc(S(=O)(=O)N(C)C[C@H]2OCCCC[C@H](C)Oc3ccc(NC(=O)C4CCCCC4)cc3C(=O)N([C@@H](C)CO)C[C@@H]2C)cc1 | inactive: 0.987
7 | CCNC(=O)C[C@@H]1CC[C@@H]2[C@H](COC[C@H](O)CN2S(=O)(=O)c2ccc(Oc3ccccc3)cc2)O1 | inactive: 0.995
8 | NNC(=O)c1cc2ccccc2[nH]1 | inactive: 0.98
9 | O=C1CN(S(=O)(=O)Cc2ccccc2)C[C@@H]2[C@@H](c3ccc(C#Cc4ccc(F)cc4)cc3)[C@@H](CO)N12 | inactive: 0.996
10 | Cc1noc(C)c1S(=O)(=O)N(C)C[C@H]1Oc2c(NC(=O)c3cnccn3)cccc2C(=O)N([C@H](C)CO)C[C@H]1C | inactive: 1.01
11 | Cc1ccc(S(=O)(=O)N(C)C[C@H]2Oc3c(NC(=O)C4CCOCC4)cccc3C(=O)N([C@@H](C)CO)C[C@@H]2C)cc1 | inactive: 1.01
12 | COc1ccc(S(=O)(=O)Nc2cccc3c2O[C@H](CN(C)CC2CC2)[C@@H](C)CN([C@@H](C)CO)C3=O)cc1 | inactive: 1.02
13 | COc1ccc(NC(=O)Nc2cccc3c2O[C@@H](CN(C)S(C)(=O)=O)[C@@H](C)CN([C@@H](C)CO)C3=O)cc1 | inactive: 0.992
14 | C[C@@H]1CN([C@H](C)CO)C(=O)c2cc(NS(=O)(=O)c3ccc(F)cc3)ccc2O[C@@H](C)CCCCO[C@H]1CN(C)S(=O)(=O)c1ccc(Cl)cc1 | inactive: 1.02
15 | COc1cccc(NC(=O)N[C@@H]2CC[C@H](CC(=O)N3CCOCC3)O[C@@H]2CO)c1 | inactive: 0.98
16 | CCCN(C)C[C@H]1OCCCC[C@H](C)Oc2ccc(NC(=O)Nc3ccc(F)cc3)cc2C(=O)N([C@@H](C)CO)C[C@H]1C | inactive: 1.01
17 | O=C(C[C@H]1CC[C@H](NC(=O)Nc2ccc3c(c2)OCO3)[C@@H](CO)O1)NCCCN1CCOCC1 | inactive: 0.991
18 | CC(=O)OC1CC(C)(C)C(=C=C/C(C)=C/C=C/C(C)=C/C=C/C=C(C)/C=C/C=C(\C)C(=O)CC23OC2(C)CC(O)CC3(C)C)C(C)(O)C1 (centres undefined) | inactive: 1.01
19 | COCC#Cc1cnc2c(c1)C(=O)N([C@H](C)CO)C[C@H](C)[C@@H](CN(C)C(=O)Nc1cc(F)ccc1F)O2 | inactive: 0.984
20 | C[C@@H]1CCCCO[C@@H](CN(C)C(=O)Nc2cccc3ccccc23)[C@H](C)CN([C@H](C)CO)C(=O)c2cc(NC(=O)NC3CCCCC3)ccc2O1 | inactive: 0.952

Row | SMILES | relative growth
21 | C[C@H](CO)N1C[C@H](C)[C@H](CN(C)Cc2ccccc2)OCCCC[C@H](C)Oc2ccc(NC(=O)c3ccncc3)cc2C1=O | inactive: 0.992
22 | COc1ccc2c3c([nH]c2c1)[C@@H](CO)N(C[C@]13CCN(CC1)C(=O)c1ccccc1F)C(=O)Nc1ccc(cc1)F | inactive: 1.02
23 | C[C@H](CO)N1C[C@H](C)[C@H](CN(C)C(=O)c2cccc(F)c2)Oc2cc(C#CC3CC3)ccc2S1(=O)=O | inactive: 1.02
24 | COc1ccc(S(=O)(=O)Nc2ccc3c(c2)CC(=O)N([C@H](C)CO)C[C@H](C)[C@H](CN(C)Cc2ccc(Oc4ccccc4)cc2)O3)cc1 | inactive: 1.01
25 | C[C@H]1CN([C@@H](C)CO)C(=O)Cc2cc(NS(=O)(=O)c3ccc(F)cc3)ccc2O[C@@H]1CN(C)C(=O)Nc1cccc2ccccc12 | inactive: 1
26 | COc1ccc([Si](C)(C)[C@H]2[C@H](CC(=O)N(CCO)Cc3ccccc3)O[C@@]3(C(=O)N(Cc4cccc(N5CCOC5=O)c4)c4ccccc43)[C@@H]2C)cc1 | inactive: 1.01
27 | Cc1ccc(S(=O)(=O)Nc2cccc3c2O[C@@H](CN(C)C(=O)Nc2cccc4ccccc24)[C@@H](C)CN([C@@H](C)CO)C3=O)cc1 | inactive: 0.979
28 | C[C@H]1CN([C@@H](C)CO)C(=O)Cc2cc(NC(=O)Cn3cnnn3)ccc2O[C@H]1CN(C)Cc1ccc2c(c1)OCO2 | inactive: 1.02
29 | COc1ccc(NC(=O)Nc2cccc3c2O[C@H](CN(C)S(=O)(=O)c2cn(C)cn2)[C@H](C)CN([C@@H](C)CO)C3=O)cc1 | inactive: 0.985
30 | Cc1ccc2nc(/N=C/c3ccc(Cl)cc3Cl)sc2c1 | inactive: 0.96
31 | Cc1ccc(S(=O)(=O)N(C)C[C@@H]2OCCCC[C@H](C)Oc3ccc(NC(=O)Nc4c(C)noc4C)cc3C(=O)N([C@@H](C)CO)C[C@H]2C)cc1 | inactive: 0.999
32 | S=C1SCN(Cc2ccccc2)CN1Cc1ccccc1 | inactive: 0.95
33 | COc1cccc(S(=O)(=O)N[C@H]2CC[C@H](CC(=O)NC3CCC3)O[C@H]2CO)c1 | inactive: 0.967
34 | COc1ccc(CN(C)C[C@@H]2Oc3ccc(NC(=O)CCN4CCOCC4)cc3C(=O)N([C@H](C)CO)C[C@@H]2C)cc1 | inactive: 0.976
35 | O=C(C[C@H]1CC[C@@H](NS(=O)(=O)c2ccc(F)cc2)[C@@H](CO)O1)N1CCC(Cc2ccccc2)CC1 | inactive: 0.975
36 | Cc1noc(C)c1NC(=O)N[C@@H]1CC[C@@H](CC(=O)N2CCN(C)CC2)O[C@@H]1CO | inactive: 0.978
37 | C[C@@H]1CN([C@H](C)CO)C(=O)c2cc(NC(=O)Nc3ccccc3)ccc2O[C@@H](C)CCCCO[C@H]1CN(C)S(=O)(=O)c1ccc(Cl)cc1 | inactive: 1.03
38 | C[C@H](CO)N1C[C@H](C)[C@H](CN(C)C(=O)CCC(F)(F)F)OCCCC[C@H](C)Oc2ccc(NC(=O)Nc3ccccc3)cc2C1=O | inactive: 0.992
39 | Cc1noc(C)c1S(=O)(=O)Nc1ccc2c(c1)CC(=O)N([C@@H](C)CO)C[C@H](C)[C@@H](CN(C)Cc1ccc3c(c1)OCO3)O2 | inactive: 1.01
40 | C[C@@H]1CCCCO[C@H](CN(C)Cc2ccc(C(F)(F)F)cc2)[C@H](C)CN([C@H](C)CO)C(=O)c2cc(NS(=O)(=O)c3cccs3)ccc2O1 | inactive: 1.03

Row | SMILES | relative growth
41 | O=C(C[C@H]1C=C[C@H](NC(=O)C2CCOCC2)[C@H](CO)O1)NCCc1cscn1 | inactive: 0.969
42 | CCOC(=O)Cn1cc(F)c(=O)[nH]c1=O | inactive: 1.06
43 | CCC1C=C2C(=O)OC(=O)C2CC2=C(C(=O)OC2=O)C(O)C1CC (centres undefined) | inactive: 0.96
44 | COc1cccc(NC(=O)N(C)C[C@H]2Oc3ncc(C#Cc4cccnc4)cc3C(=O)N([C@H](C)CO)C[C@H]2C)c1 | inactive: 1.03
45 | COc1ccc(NC(=O)N(C)C[C@@H]2Oc3ccc(NS(=O)(=O)c4cn(C)cn4)cc3CC(=O)N([C@H](C)CO)C[C@@H]2C)cc1 | inactive: 0.992
46 | CCN(CC)Cc1ccc(Nc2ccnc3cc(Cl)ccc23)cc1O.Cl.Cl | inactive: 0.884
47 | COc1ccc(NC(=O)Nc2ccc3c(c2)C(=O)N([C@@H](C)CO)C[C@H](C)[C@@H](CN(C)Cc2ccc4c(c2)OCO4)OCCCC[C@@H](C)O3)cc1 | inactive: 1
48 | Cc1ccc(S(=O)(=O)Nc2ccc3c(c2)C(=O)N([C@@H](C)CO)C[C@H](C)[C@H](CN(C)C(=O)NC2CCCCC2)OCCCC[C@H](C)O3)cc1 | inactive: 0.997
49 | C[C@@H]1CN([C@H](C)CO)C(=O)CCCn2cc(nn2)CO[C@H]1CN(C)C(=O)Nc1ccccc1C(F)(F)F | inactive: 0.99
50 | C[C@H](CO)N1C[C@H](C)[C@H](CN(C)C(=O)c2ccccc2)OCCCC[C@H](C)Oc2ccc(NC(=O)CCCCCC(=O)Nc3ccccc3N)cc2C1=O | inactive: 0.973
51 | C[C@H](CO)N1C[C@H](C)[C@H](CN(C)C(=O)Nc2ccc(C(F)(F)F)cc2)Oc2c(NC(=O)Nc3cccc4ccccc34)cccc2C1=O | inactive: 0.971
52 | CN1C(=O)c2cc(NS(C)(=O)=O)ccc2OC[C@H]2O[C@H](CC(=O)N3CCOCC3)CC[C@@H]21 | inactive: 1.03
53 | COc1ccc(OCc2c(-c3ccccc3)nnn2CC(=O)NS(=O)(=O)c2ccc(F)cc2F)cc1 | inactive: 0.966
54 | COc1ccc2c3c([nH]c2c1)[C@H](CO)N(C[C@]13CCN(CC1)C(=O)c1cnccn1)C(=O)c1cnccn1 | inactive: 1.01
55 | Cc1noc(C)c1S(=O)(=O)Nc1cccc2c1O[C@H](CN(C)S(=O)(=O)c1ccc(F)cc1)[C@H](C)CN([C@@H](C)CO)C2=O | inactive: 1.02
56 | Cc1ccc(S(=O)(=O)N(C)C[C@H]2OCCCC[C@H](C)Oc3ccc(NS(=O)(=O)c4ccc(Cl)cc4)cc3C(=O)N([C@H](C)CO)C[C@H]2C)cc1 | inactive: 1.03
57 | C[C@@H]1CCCCO[C@@H](CN(C)Cc2ccccc2)[C@@H](C)CN([C@@H](C)CO)C(=O)c2cc(NC(=O)Nc3cccc4ccccc34)ccc2O1 | inactive: 0.998
58 | C[C@H](CO)N1C[C@H](C)[C@H](CN(C)S(C)(=O)=O)OCc2ccccc2-c2c(n(C)c3ccccc23)C1=O | inactive: 0.983
59 | C[C@H](CO)N1C[C@H](C)[C@H](CN(C)S(=O)(=O)c2cn(C)cn2)Oc2ccc(NC(=O)CCN3CCOCC3)cc2CC1=O | inactive: 0.989
